Test results taken from PubChem BioAssay AID360 (National Center for Advancing Translational Sciences (NCATS), 2006).
The whole screen tested about 48,000 compounds, of which about 550 (1.1%) were called active. About 4% were inconclusive and are not listed. No stated cut-off is given here; in the data, active means potency below about 15 µM; inconclusive means mostly about 16 µM to 33 µM; inactive means weaker than that. The list shows a part of the results.

Target: Lysosomal acid glucosylceramidase (Homo sapiens) (UniProt P04062)
Experiment: Glucocerebrosidase;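 further: the screen sought inhibitors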
Details: purified enzyme, resorufin glucoside fluorescence (screen aimed at inhibitors), 20 min; series mostly up to 77 µM
Method in brief: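 Wild-type enzyme at 0.2 nM final in 50mM citric acid/KH2PO4, 10mM sodium taurocholate, 0.01% tween-20, pH 5.9, with resorufin beta-D-glucopyranoside at 30 uM final. Compounds titrated, 20 min at RT, red fluorescence read; AC50 from titration.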
Potency means the concentration at half of the fitted maximal effect.

Chain of UniProt P04062 (P04062 whole entry, looked up): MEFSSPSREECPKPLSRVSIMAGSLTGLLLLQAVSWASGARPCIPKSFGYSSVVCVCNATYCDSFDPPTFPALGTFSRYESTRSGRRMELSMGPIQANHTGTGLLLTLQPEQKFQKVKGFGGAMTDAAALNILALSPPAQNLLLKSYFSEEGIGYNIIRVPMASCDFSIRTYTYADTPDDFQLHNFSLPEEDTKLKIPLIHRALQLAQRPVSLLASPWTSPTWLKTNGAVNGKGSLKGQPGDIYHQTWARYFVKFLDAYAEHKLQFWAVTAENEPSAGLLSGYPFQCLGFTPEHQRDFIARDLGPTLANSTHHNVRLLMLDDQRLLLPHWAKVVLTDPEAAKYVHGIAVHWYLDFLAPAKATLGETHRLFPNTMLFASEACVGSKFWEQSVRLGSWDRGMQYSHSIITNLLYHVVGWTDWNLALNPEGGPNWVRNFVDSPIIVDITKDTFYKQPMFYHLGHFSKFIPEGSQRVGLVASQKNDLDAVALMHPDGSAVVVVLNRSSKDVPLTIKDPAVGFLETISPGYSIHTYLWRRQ

Potency, inactive:
COc1ccc(-c2nnc(SCC(=O)c3cccs3)o2)cc1 > 76.9 µM, Cc1oc(C)c2c(=O)ccc3c(c12)OC(N)=C(C#N)C3c1ccc(F)cc1 (stereo unspecified) > 76.9 µM, CC1(C)CC(C2N3CC4(C)CN2CC(C)(C3)C4=O)CCO1 (stereo unspecified) > 76.9 µM, O=C1C2(c3ccccc3)CN(CCCO)CC1(c1ccccc1)CN(CCCO)C2 > 76.9 µM, C=CCn1c(Cc2cccs2)nnc1SCC(=O)Nc1cc(OC)cc(OC)c1 > 76.9 µM, Cc1ccnc(NC(=O)CCc2c(C)nc3ncnn3c2C)c1 > 76.9 µM, COC(=O)CCC(=O)c1oc2ccccc2c1N > 76.9 µM, O=C(CCn1c(=O)oc2ccccc21)N1CCN(c2ccccc2Cl)CC1 > 76.9 µM, COc1cccc(NC(=O)CSc2nnc(C)s2)c1 > 76.9 µM, CCC1CCCCN1CCNC(=O)C1CCN(S(=O)(=O)c2c(C)noc2C)CC1 (stereo unspecified) > 76.9 µM, CCc1nnc(SCc2cn3c(C)cc(C)nc3n2)n1N > 76.9 µM, CCOC(=O)c1cc2c(c(CSc3nc4ccccc4c(=O)n3Cc3ccco3)c1)OCOC2 > 76.9 µM, CCCCNC(=O)Cn1c(-c2ccc(OC)cc2)noc1=O > 76.9 µM, Cc1cc(=O)oc(C)c1C(=O)NCc1ccccn1 > 76.9 µM, CCCCC(=O)Nc1nnc(SCC(=O)N2CCN(c3ccccc3OC)CC2)s1 > 76.9 µM, CCCCCCN=CC1=C(O)CC(C)(C)CC1=O > 76.9 µM, CCN(CC)C(=O)CSc1nc2sc(C)c(C)c2c(=O)[nH]1 > 76.9 µM, COC(=O)c1cc(OC)c(OC)cc1NC(=O)CSc1nnc(-c2cccnc2)n1C > 76.9 µM, Cc1ccccc1CS(=O)(=O)CCC(=O)NCCCN1CCOCC1 > 76.9 µM, Cc1ccccc1OCC(=O)N(Cc1cccs1)C1CCS(=O)(=O)C1 (stereo unspecified) > 76.9 µM, CCOc1ccc(-c2nn3c(-c4ccccc4)nnc3s2)cc1 > 76.9 µM, CCOC(=O)C1(CC)NC(c2ccc(N(C)C)cc2)C2C(=O)N(C)C(=O)C21 (stereo unspecified) > 76.9 µM, Cc1cc(=O)oc2c(C)c(OCC(=O)N(C)C)ccc12 > 76.9 µM, Cc1cc(C)n(-c2cc(C)c(C)cc2Br)n1 > 76.9 µM, Cc1ccc(NC(=O)CSc2nnc(-c3ccncc3)n2C)cc1C > 76.9 µM, Cc1ccc(NC(=O)c2ccc(F)c(S(=O)(=O)N3CCOCC3)c2)cc1F > 76.9 µM, CCCCn1c(SCc2cc(=O)[nH]c3ccccc23)nc2c1c(=O)n(C)c(=O)n2C > 76.9 µM, C=CCOc1cccc(C2C(C(=O)c3ccc(C)o3)=C(O)C(=O)N2CCN(C)C)c1 (stereo unspecified) > 76.9 µM, O=c1[nH]c(CSc2nnc(COc3ccccc3)n2-c2ccccc2)nc2ccccc12 > 76.9 µM, Cc1noc(C)c1COC(=O)C1(c2cccc(F)c2)CCCC1 > 76.9 µM, Cc1cc(N(CC(=O)O)S(C)(=O)=O)ccc1Br > 76.9 µM, CCCCCC1CCC(C(=O)O)CC1 (stereo unspecified) > 76.9 µM, C/C(Cl)=C/CSc1nc2c(c(=O)[nH]c(=O)n2C)n1C(C)C > 76.9 µM, CNC(=O)c1nnn(Cc2ccccc2)c1NC(C)=O > 76.9 µM, Cc1[nH]c(=O)[nH]c(=O)c1S(=O)(=O)NCCOC12CC3CC(CC(C3)C1)C2 > 76.9 µM, COc1ccc(OC)c(C(c2nnnn2CCc2ccccc2)N2CCC(C(N)=O)CC2)c1 (stereo unspecified) > 76.9 µM, CCOC(=O)c1cnc(SCC(=O)Nc2nnc(CC)s2)nc1N > 76.9 µM, CCOC(=O)C1CCN(C(=O)c2c(-c3c(F)cccc3Cl)noc2C)CC1 > 76.9 µM, Cc1c(C(=O)Nc2ccc(-n3cnnn3)cc2)oc2ccccc12 > 76.9 µM, Cc1cccc(OC(C)C(=O)N(Cc2cccs2)C2CCS(=O)(=O)C2)c1C (stereo unspecified) > 76.9 µM, COC(=O)c1[nH]c2ccc(C)cc2c1NC(=O)Nc1ccccc1OC > 76.9 µM, COC(=O)C1=C(N)Oc2cc(C)n(CCCn3ccnc3)c(=O)c2C1c1ccc(Cl)cc1 (stereo unspecified), Cc1cc(C)n(CCOc2nonc2N)n1 > 76.9 µM, CCCCn1c(SCc2cc(=O)n3ccsc3n2)nc2cc(C(=O)OC)ccc2c1=O > 76.9 µM, Cc1cc(C)n2nc(S(=O)(=O)N(C)Cc3ccccc3)nc2n1 > 76.9 µM, c1ccc2c(c1)ncn2Cc1nnc2sc(-c3ccncc3)nn12 > 76.9 µM, CC(C)c1ccc2oc(=O)cc(CN3CCN(c4ccccc4)CC3)c2c1 > 76.9 µM, Cc1[nH]c(=O)[nH]c(=O)c1NC(=O)c1cccs1 > 76.9 µM, COc1ccc(N(C)S(=O)(=O)c2ccc3c(c2)CCC(=O)N3)cc1 > 76.9 µM, COc1ccc(C)cc1S(=O)(=O)N(C)CC(=O)Nc1ccccc1 > 76.9 µM, Cc1ccc(Cn2nc(C)c(NC(=O)c3cc(-c4ccco4)on3)c2C)cc1 > 76.9 µM, O=C(Cn1ccc2ccccc2c1=O)NCCC(=O)Nc1cccnc1 > 76.9 µM, O=C(NC1CCCCC1)c1ccc(S(=O)(=O)N2CCCCC2)cc1 > 76.9 µM, CCOC(=O)N1CCN(C(=O)CCSCCc2ccncc2)CC1 > 76.9 µM, CCOC(=O)c1c(NC(=O)CSc2nnc(-c3cccnc3)o2)sc(C)c1C > 76.9 µM, O=C(CSc1nc(N2CCCCC2)nc(N2CCCCC2)n1)Nc1nccs1 > 76.9 µM, Cn1c(=O)[nH]c(=O)c2c1nc(Br)n2CCOc1ccccc1 > 76.9 µM, CC(C(=O)Nc1nccs1)N1C(=O)C2CC=CCC2C1=O (stereo unspecified) > 76.9 µM, CC(=O)c1ccc(NC(=O)Nc2ncn(Cc3cccc(C)c3)n2)cc1 > 76.9 µM, COc1ccccc1N1CCN(C(=O)c2ccc(N3CCCC3=O)cc2)CC1 > 76.9 µM, CCOc1ccc(NC(=O)C2CC(=O)N(C(C)C)C2)cc1 (stereo unspecified) > 76.9 µM, O=c1cc(NCc2ccc3c(c2)OCO3)[nH]c(=O)n1-c1ccc(Cl)cc1 > 76.9 µM, Cc1ccc2c(c1)c(C)cc(=O)n2CCC(=O)O > 76.9 µM, CS(C)(=O)=NS(=O)(=O)c1ccc(Cl)cc1 > 76.9 µM, CC(=O)Nc1ccc(S(=O)(=O)n2nc(C)cc2C)cc1 > 76.9 µM, O=C1c2oc3ccc(Cl)cc3c(=O)c2C(c2cccc(Br)c2)N1CCO (stereo unspecified) > 76.9 µM, Cc1ccc(C2C3=C(CC(C)(C)CC3=O)NC3=C2C(=O)CC(C)(C)C3)o1, CSc1nnc(Cc2cc(=O)[nH]c(=O)[nH]2)n1-c1cccc(C)c1 > 76.9 µM, OCCNc1nc(OCC(F)(F)F)nc(N2CCN(C34CC5CC(CC(C5)C3)C4)CC2)n1 > 76.9 µM, c1ccc(COc2ccc(Oc3nc(N4CCCCC4)nc(N4CCOCC4)n3)nn2)cc1 > 76.9 µM, O=C(O)CCCCCN1C(=O)CSC1=S > 76.9 µM, O=C(CNS(=O)(=O)c1ccccc1)NCc1ccccn1 > 76.9 µM, CCOc1ccc2nc(NC3=NCN(CC4CCCO4)CN3)nc(C)c2c1 (stereo unspecified) > 76.9 µM, O=C(CN(CC1CCCO1)C(=O)CCC(=O)Nc1nccs1)NCc1ccc2c(c1)OCO2 (stereo unspecified) > 76.9 µM, CCOc1ccc(C)cc1S(=O)(=O)n1ccnc1 > 76.9 µM, CCCc1cc(C(=O)Cc2ccc(C(=O)OCC)o2)c(O)cc1O > 76.9 µM, COc1ccc(S(=O)(=O)N2CCN(CC(=O)Nc3ccc(C)c(F)c3)CC2)cc1 > 76.9 µM, CCCCOc1ccccc1Cn1c(=O)oc2ccccc21 > 76.9 µM, COc1cccc(NC(=O)c2nc3ncccn3n2)c1 > 76.9 µM, Nc1nc(SCc2ccc3c(c2)OCO3)n[nH]1 > 76.9 µM, O=C1CN(C(=O)OCc2ccccc2)c2ccccc2N1 > 76.9 µM, COCCn1c(SCC(=O)c2ccc(Cl)cc2)nnc1C(C)C > 76.9 µM, O=C(Nc1cccc(NC(=O)c2ccco2)c1)c1ccc2c(c1)OCO2 > 76.9 µM, Cc1noc(C)c1C(=O)NCc1cccs1 > 76.9 µM, CCc1nnc(NC(=O)CSc2nnc(CSc3nc(C)cc(C)n3)n2CC)s1 > 76.9 µM, COc1cc(C(=O)NCc2nnc(SCC(=O)Nc3cccc(C)c3)o2)cc(OC)c1OC > 76.9 µM, O=C(NCc1ccccc1)NC1CCCCC1 > 76.9 µM, CCOC(=O)c1c(C)c(C(=O)NCc2ccc3c(c2)OCO3)c(C)n1C > 76.9 µM, COc1cccc2c1NC(C(=O)O)C1CC=CC21 (stereo unspecified) > 76.9 µM, CCOCCCNC(=O)CN1C(=O)C(CC)Oc2ccccc21 (stereo unspecified) > 76.9 µM, O=C(Nc1cccnc1)c1cc2nc(C3CC3)cc(C(F)(F)F)n2n1 > 76.9 µM
